The full ranking holds about 33,000 sequences; the median of “E-score (-0.5 to 0.5)” is about -0.013, and the highest 2% start at about 0.3. This is one part of the list.
What follows are sequences tested against T1, Msn1 (UniProt P22148) (assay: PBM E-score (8-mer binding enrichment) (E-score (-0.5 to 0.5)); higher = stronger / more preferred TF binding; most listed sequences are background and not binding sites). Conditions: protein concentration: 200 nM; construct: GST-full length.
T1 sequence: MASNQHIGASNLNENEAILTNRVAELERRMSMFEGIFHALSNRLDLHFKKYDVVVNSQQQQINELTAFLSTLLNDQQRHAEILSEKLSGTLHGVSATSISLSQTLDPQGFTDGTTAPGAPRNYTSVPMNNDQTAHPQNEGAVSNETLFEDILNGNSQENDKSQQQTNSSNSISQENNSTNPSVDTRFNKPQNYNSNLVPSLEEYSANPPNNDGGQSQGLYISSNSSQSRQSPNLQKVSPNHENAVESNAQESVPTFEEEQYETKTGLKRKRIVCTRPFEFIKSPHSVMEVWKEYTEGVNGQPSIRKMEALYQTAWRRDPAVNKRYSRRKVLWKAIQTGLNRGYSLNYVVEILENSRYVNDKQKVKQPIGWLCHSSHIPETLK
Method: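 Universal 'all 10-mer' protein binding microarrays (Agilent AMADID 015681) probed with GST-tagged S. cerevisiae TFs (full-length or DBD) made by in vitro transcription/translation (PURExpress), about 100-200 nM. Bound TF was detected with fluorescent anti-GST. Each ungapped 8-mer (which stands for itself and its reverse complement) is scored by the PBM enrichment score (E-score), a modified Wilcoxon-Mann-Whitney statistic from -0.5 to +0.5, computed with the Universal PBM Analysis Suite. Scale: above 0.35 generally sequence-specific binding.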

Row | Sequence | PBM E-score
1 | AGAACGCA | -0.0363
2 | TCGATCAA | 0.00802
3 | AGTGCTAC | -0.0814
4 | CCAAGGAC | 0.16
5 | CAAGCTGC | -0.114
6 | CAATAACA | 0.0401
7 | AGAATTGC | 0.04
8 | ACAGACAC | 0.288
9 | GCTCATCA | -0.031
10 | CCTACATC | -0.00686
11 | GCCATCCC | -0.373
12 | CGTGCTTA | -0.0897
13 | ACTATTCT | 0.0295
14 | AGTTGACA | 0.206
15 | CCGGCGTC | -0.13
16 | ACCGCATA | 0.0316
17 | CTCGCGTC | 0.0566
18 | CAATATAC | 0.0211
19 | ACACCGAT | 0.0423
20 | ACCCCAAT | -0.0661
21 | AGTCAGTC | -0.0159
22 | GAGCTAAC | -0.149
23 | AATTCCGG | 0.2
24 | ACTCAACC | -0.0917

Row | Sequence | PBM E-score
25 | GCCGGCCA | 0.0673
26 | CCCATCCA | -0.137
27 | CGATGCCG | -0.142
28 | CGAGCGGC | 0.0136
29 | CAAAGCAA | 0.141
30 | ATCCTATC | -0.0721
31 | GTGAGACA | 0.315
32 | GCCAAACC | -0.192
33 | ATAGGAAA | 0.0636
34 | AGTCCTTC | -0.121
35 | GCTCCTCA | -0.38
36 | ATAATTTC | 0.106
37 | AGTCAGTA | 0.0349
38 | TATACTCA | 0.0163
39 | CCGAAGAA | 0.13
40 | ACGAACCC | -0.313
41 | AAGCGGTA | 0.00644
42 | ACGCGAGG | 0.0738
43 | CCTCTATC | -0.164
44 | AGTGTCAT | 0.112
45 | AAGATAAA | 0.267
46 | GCTTCACC | -0.178
47 | CTCATCAG | -0.046
48 | TCTCCCAA | -0.0533

Row | Sequence | PBM E-score
49 | ATGTTTAG | 0.122
50 | AGGATTTA | 0.0902
51 | AGGACCGA | -0.0701
52 | CAGCGTGA | -0.039
53 | GACGAAAC | 0.162
54 | ACATTCCC | 0.274
55 | ATACCCAC | -0.0338
56 | ATTCGACG | 0.0794
57 | AGTGTGGA | -0.0579
58 | TATTCAAA | 0.202
59 | ACTATGGC | -0.195
60 | AGGTTTGC | -0.124
61 | GGTGCGCA | -0.0546
62 | GCGCGCGA | 0.0948
63 | ACAGATGT | 0.0399
64 | AGTCGACT | 0.154
65 | ACTTGGAG | -0.123
66 | CAAATTTA | 0.15
67 | CATGCGAC | 0.0575
68 | ACTCGTCC | 0.18
69 | GAGCACAA | -0.112
70 | CCGCCGCC | -0.201
71 | AATTGGAG | -0.00784
72 | GCAAGCAA | -0.105

Row | Sequence | PBM E-score
73 | GATCGTGC | 0.105
74 | CTTCGAAG | -0.0759
75 | GAAAAGCA | 0.0243
76 | CACCAGAC | 0.00954
77 | GCACTGGC | -0.208
78 | AACGGTAG | 0.0263
79 | ATGCTTAC | -0.191
80 | CCACCGCA | -0.233
81 | TACATTCA | 0.0713
82 | CCTTCCGA | -0.182
83 | GGTTTTAC | -0.222
84 | CCCGCGCA | -0.0768
85 | TGACGACA | 0.245
86 | TACAGACA | 0.371
87 | AGTTTCAT | 0.12
88 | ACGCAAAA | 0.0433
89 | CCCCTACA | -0.236
90 | GCAGCATA | -0.0938
91 | CGCCTCGA | -0.0954
92 | ATCCTCAG | 0.132
93 | AACAAAGC | -0.00117
94 | AAGGAAGT | -0.0916
